Several values for one entry are separate records, joined by “and”; a condition that tells them apart may be missing. Identical values can stand only once. In all, about 16,000 compounds went through this assay and about 40 (0.2%) were called active. Roughly 1% stayed inconclusive and do not appear here. Calls come from the whole dose curve; as a rule, active = well fitted activation curve with a large enough effect; inconclusive = small, poorly fitted or top-dose-only effect, or another doubt; inactive = no such curve, though single readings can be large or run the other way. The list shows a part of the results.
% is set by controls: 0 for no effect and ±100 for the full control effect; potency is the fitted concentration of half-maximal effect.

The test concerns the target Rap guanine nucleotide exchange factor 4 (Homo sapiens) (UniProt Q8WZA2). Briefly: Validation qHTS for agonist of cAMP-regulated guanine nucleotide exchange factor 4 (EPAC2).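 For activation: exchange makes BODIPY-GDP fluorescence drop when released from Rap1B; series mostly up to about 150 µM.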 The note with it: EPAC2 Rap1B BODIPY-GDP exchange, fluorescence; activation: active compounds read high. In outline: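 Signal normalized against 6.5 mM cAMP as agonist control. Mix of EPAC2 (100 nM), RAP1B-BODIPY-GDP (250 nM) and GDP (50 uM) was read kinetically at 480/540 nm, every 5 min over 30 min, after 5 min room-temperature incubation with compound.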
Sequence of UniProt Q8WZA2 (Q8WZA2 whole entry, looked up): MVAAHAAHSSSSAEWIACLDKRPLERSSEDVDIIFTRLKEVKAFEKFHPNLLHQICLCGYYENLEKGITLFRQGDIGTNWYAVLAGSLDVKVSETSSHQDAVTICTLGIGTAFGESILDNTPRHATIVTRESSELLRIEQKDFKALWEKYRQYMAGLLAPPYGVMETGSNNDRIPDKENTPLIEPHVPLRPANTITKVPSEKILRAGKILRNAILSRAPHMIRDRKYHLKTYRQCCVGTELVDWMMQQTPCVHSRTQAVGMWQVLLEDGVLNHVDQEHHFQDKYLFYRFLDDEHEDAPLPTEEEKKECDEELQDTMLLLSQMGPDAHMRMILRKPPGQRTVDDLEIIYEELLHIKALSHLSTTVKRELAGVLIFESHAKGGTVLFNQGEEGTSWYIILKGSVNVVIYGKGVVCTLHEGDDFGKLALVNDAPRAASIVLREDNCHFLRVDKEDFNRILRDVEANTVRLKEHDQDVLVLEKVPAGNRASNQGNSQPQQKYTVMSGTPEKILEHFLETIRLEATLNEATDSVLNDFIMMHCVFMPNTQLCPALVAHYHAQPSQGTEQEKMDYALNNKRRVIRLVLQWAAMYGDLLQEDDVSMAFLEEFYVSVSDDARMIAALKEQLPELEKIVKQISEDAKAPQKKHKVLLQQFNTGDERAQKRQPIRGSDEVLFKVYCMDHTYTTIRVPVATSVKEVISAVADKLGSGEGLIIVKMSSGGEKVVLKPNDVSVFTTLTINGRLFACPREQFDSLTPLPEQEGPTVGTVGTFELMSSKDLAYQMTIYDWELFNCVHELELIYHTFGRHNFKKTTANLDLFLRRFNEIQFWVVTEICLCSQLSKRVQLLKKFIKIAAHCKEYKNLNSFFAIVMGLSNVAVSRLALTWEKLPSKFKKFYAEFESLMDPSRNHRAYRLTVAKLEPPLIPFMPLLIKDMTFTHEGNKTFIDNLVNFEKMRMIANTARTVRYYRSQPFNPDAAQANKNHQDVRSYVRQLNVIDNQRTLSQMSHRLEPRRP
(In general: In qHTS, concentration-response curves come from the screen itself.)
For the compound `Nc1cc(N)cc(N)c1`, the Potency was active: 50.1 µM.

Take `CCOc1ccccc1C(N)=O`: the activation was inactive: 6.07%.

On to `Cc1cc2c(c(-c3ccc(Cl)cc3)c1)OC(CNC(=O)Cc1c(C)noc1C)C2` (stereo unspecified), for which the activation is inactive: -13%. With `CSc1nnc(CCNC(=O)/C=C/c2cccc(F)c2)n1-c1ccc(F)cc1`, the activation was inactive: -9.1%. Same read-out and setting: as for `CN(C)c1ncc2nc(-c3cc(F)cc(F)c3)c(=O)n(CCc3ccccc3)c2n1`, the figure is inactive: 8.28%. Consider `COc1ccccc1-c1cncnc1N1CCN(C)CC1`, for which the activation is inactive: 2.27%. On the same count and under the same terms, as for `CCN(CC)CCn1c(=O)c(Cc2ccc(OC)cc2)nc2ccccc21`, the figure is inactive: -34.1%. Regarding `COc1cc(OC)c2nc(-c3cc4c(c(OC)c3)OCCN(Cc3cn(C)nc3C)C4)cc(C)c2c1`, the activation is inactive: -5.56%. Regarding `CCC1CN(CCNC(=O)c2ccc3c(c2)OCCO3)Cc2cc(OC)ccc2O1` (stereo unspecified), the activation was inactive: -3.54%.

As to `O=C(c1csnn1)N1CCC[C@@]2(CCN(c3ccccn3)C2)C1`, the activation is inactive: -17.6%. In the case of `O=C(Oc1ccccc1)N1CCC2(CC1)CN(c1ccccn1)C2`, the activation was inactive: 6.1%. As for `CC(=O)c1ccc2oc3ccccc3c(=O)c2c1`, the activation is inactive: -18.2%. The same measure, in the same setting: then `O=C1CC[C@@H](CN(Cc2cccnc2)C2CCN(c3ccc(NC(=O)c4cnccn4)cc3)CC2)N1`, with inactive: -4.13%; and `CCNc1ncc2nc(-c3cccs3)c(=O)n(Cc3cccc(OC)c3)c2n1`, with inactive: -3.24%; and `Cc1cccc(CNc2ccnc(-c3ccoc3)n2)c1`, with inactive: -30.4%. As to `Cc1ncc2c(c1CNC(=O)c1cncs1)CCN(C(=O)c1cccc(-c3cccc(F)c3)c1)C2`, the activation was inactive: -15.7%. Same read-out and setting: as for `OCl`, the figure is inactive: 12.4%; as for `CN(C)CCCCSC(=N)N`, inactive: -11.1% and inactive: 7.5%; as for `COC(=O)c1ccc(-c2cccc3c2OC(CNC(=O)/C=C/c2ccc(OC)c(OC)c2)C3)nc1` (stereo unspecified), inactive: 3.94%. `COc1cc(C=O)ccc1O`: the activation was inactive: -4.55% and inactive: 6.75%. Turning to `O=c1c(-c2ccccc2)nc2cnc(N3CCNCC3)nc2n1C1CC1`, the activation is inactive: -5.11%.

On to `C#C[C@]1(O)CC[C@H]2[C@@H]3CCc4cc(OC)ccc4[C@H]3CC[C@@]21C`, for which the activation was inactive: -7.53%. Regarding `COc1cc(C2c3cc4c(cc3C(OC3OC5COC(C)O[C@@H]5C(O)C3O)C3COC(=O)C23)OCO4)cc(OC)c1O` (stereo partly specified), the activation is inactive: 14.6%. Take `CC(N)(Cc1ccc(O)cc1)C(=O)O` (stereo unspecified): the activation was inactive: -6.55%.

Turning to `CC(C)NCC(O)c1ccc(NS(C)(=O)=O)cc1` (stereo unspecified), the activation was inactive: 8.35% and inactive: 5.75% and inactive: -23%. On the same count and under the same terms, then `O=C(Oc1ccccc1)N1CCC2(CC1)CCN(c1ccncc1)CC2`, with inactive: -23.8%.

Values taken from PubChem BioAssay AID1645887 (National Center for Advancing Translational Sciences (NCATS), 2021).
